± gives the standard deviation of the averaged measurements. Laboratory Escherichia coli strains with one amino-acid change in an essential protein, pooled on minimal glucose agar with carbenicillin or gentamicin at twice the control MIC (plus kanamycin and chloramphenicol for the plasmids), 48 h. Fold change of barcode share against drug-free plates; higher = less susceptible. Active = above 20 in both replicates (the paper's putatively resistant). '<' = one read or none on drug, '>' = one read or none on a drug-free plate. Shares are relative, so most strains fall below 1 when a few take over. Listed are strains with at least 15 reads on both drug-free plates, and hits; most hits rest on fewer reference reads. Replicate rank correlation about 0.5. Edits are read from barcodes.
B1: frr L65A (protein)
chain: MISDIRKDAEVRMDKCVEAFKTQISKIRTGRASPSLLDGIVVEYYGTPTPLRQLASVTVEDSRTAKINVFDRSMSPAVEKAIMASDLGLNPNSAGSDIRVPLPPLTEERRKDLTKIVRGEAEQARVAVRNVRRDANDKVKALLKDKEISEDDDRRSQDDVQKLTDAAIKKIEAALADKEAELMQF
B2: frr L65W (protein)
chain: MISDIRKDAEVRMDKCVEAFKTQISKIRTGRASPSLLDGIVVEYYGTPTPLRQLASVTVEDSRTWKINVFDRSMSPAVEKAIMASDLGLNPNSAGSDIRVPLPPLTEERRKDLTKIVRGEAEQARVAVRNVRRDANDKVKALLKDKEISEDDDRRSQDDVQKLTDAAIKKIEAALADKEAELMQF
B3: frr I67A (protein)
chain: MISDIRKDAEVRMDKCVEAFKTQISKIRTGRASPSLLDGIVVEYYGTPTPLRQLASVTVEDSRTLKANVFDRSMSPAVEKAIMASDLGLNPNSAGSDIRVPLPPLTEERRKDLTKIVRGEAEQARVAVRNVRRDANDKVKALLKDKEISEDDDRRSQDDVQKLTDAAIKKIEAALADKEAELMQF
B4: frr V69P (protein)
chain: MISDIRKDAEVRMDKCVEAFKTQISKIRTGRASPSLLDGIVVEYYGTPTPLRQLASVTVEDSRTLKINPFDRSMSPAVEKAIMASDLGLNPNSAGSDIRVPLPPLTEERRKDLTKIVRGEAEQARVAVRNVRRDANDKVKALLKDKEISEDDDRRSQDDVQKLTDAAIKKIEAALADKEAELMQF
B5: frr V78A (protein)
chain: MISDIRKDAEVRMDKCVEAFKTQISKIRTGRASPSLLDGIVVEYYGTPTPLRQLASVTVEDSRTLKINVFDRSMSPAAEKAIMASDLGLNPNSAGSDIRVPLPPLTEERRKDLTKIVRGEAEQARVAVRNVRRDANDKVKALLKDKEISEDDDRRSQDDVQKLTDAAIKKIEAALADKEAELMQF
B6: frr V117A (protein)
chain: MISDIRKDAEVRMDKCVEAFKTQISKIRTGRASPSLLDGIVVEYYGTPTPLRQLASVTVEDSRTLKINVFDRSMSPAVEKAIMASDLGLNPNSAGSDIRVPLPPLTEERRKDLTKIARGEAEQARVAVRNVRRDANDKVKALLKDKEISEDDDRRSQDDVQKLTDAAIKKIEAALADKEAELMQF
B7: frr V117W (protein)
chain: MISDIRKDAEVRMDKCVEAFKTQISKIRTGRASPSLLDGIVVEYYGTPTPLRQLASVTVEDSRTLKINVFDRSMSPAVEKAIMASDLGLNPNSAGSDIRVPLPPLTEERRKDLTKIWRGEAEQARVAVRNVRRDANDKVKALLKDKEISEDDDRRSQDDVQKLTDAAIKKIEAALADKEAELMQF
B8: frr V117Q (protein)
chain: MISDIRKDAEVRMDKCVEAFKTQISKIRTGRASPSLLDGIVVEYYGTPTPLRQLASVTVEDSRTLKINVFDRSMSPAVEKAIMASDLGLNPNSAGSDIRVPLPPLTEERRKDLTKIQRGEAEQARVAVRNVRRDANDKVKALLKDKEISEDDDRRSQDDVQKLTDAAIKKIEAALADKEAELMQF
B9: frr F20A (protein)
chain: MISDIRKDAEVRMDKCVEAAKTQISKIRTGRASPSLLDGIVVEYYGTPTPLRQLASVTVEDSRTLKINVFDRSMSPAVEKAIMASDLGLNPNSAGSDIRVPLPPLTEERRKDLTKIVRGEAEQARVAVRNVRRDANDKVKALLKDKEISEDDDRRSQDDVQKLTDAAIKKIEAALADKEAELMQF
B10: frr F20W (protein)
chain: MISDIRKDAEVRMDKCVEAWKTQISKIRTGRASPSLLDGIVVEYYGTPTPLRQLASVTVEDSRTLKINVFDRSMSPAVEKAIMASDLGLNPNSAGSDIRVPLPPLTEERRKDLTKIVRGEAEQARVAVRNVRRDANDKVKALLKDKEISEDDDRRSQDDVQKLTDAAIKKIEAALADKEAELMQF

Molecular target: Escherichia coli (laboratory strain)
Assay: barcode share on antibiotic plates over drug-free plates; higher = less susceptible
Conditions: antibiotic: carbenicillin; 2× MIC (3.1 µg/mL)
Method: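 A pool of E. coli strains, each edited to carry one amino-acid change in an essential protein, was grown for 48 h on minimal glucose agar with or without antibiotic; strain barcodes were sequenced; mean of two replicates.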

For B1, which “fold change of barcode share” value is on record?
Its value is 0.432 ± 0.062.

With B2 as the protein, how does the “fold change of barcode share” value read?
The value was 0.412 ± 0.04.

Which “fold change of barcode share” value does the source give for B3 here?
Its value is 0.212 ± 0.09.

Which “fold change of barcode share” value does the source give for B4 here?
The value was 0.25 ± 0.013.

Which “fold change of barcode share” value does the source give for B5 here?
The value was 0.692 ± 0.38.

B6 was tested. Which “fold change of barcode share” value did it give?
Its value is 0.376 ± 0.026.

Which “fold change of barcode share” value does the source give for B7 here?
The value was 0.281 ± 0.0052.

How did the “fold change of barcode share” value turn out when B8 was run?
The value was 0.584 ± 0.043.

With B9 as the protein, how does the “fold change of barcode share” value read?
The value was 0.334 ± 0.14.

With B10 as the protein, how does the “fold change of barcode share” value read?
Its value is 0.286 ± 0.048.

Same assay, conditions: antibiotic: gentamicin; 2× MIC (MIC 0.45 µg/mL)

With B1 as the protein, how does the “fold change of barcode share” value read?
The value was 0.0204 ± 0.012.

Which “fold change of barcode share” value does the source give for B2 here?
Its value is < 0.0129.

For B3, which “fold change of barcode share” value is on record?
Its value is < 0.0103.

With B4 as the protein, how does the “fold change of barcode share” value read?
The value was 0.014 ± 0.0065.

How did the “fold change of barcode share” value turn out when B5 was run?
Its value is < 0.0143.

With B6 as the protein, how does the “fold change of barcode share” value read?
Its value is 0.00984 ± 0.0032.

For B7, which “fold change of barcode share” value is on record?
The value was 0.00341 ± 0.0012.

How did the “fold change of barcode share” value turn out when B9 was run?
The value was < 0.00633.

B10 was tested. Which “fold change of barcode share” value did it give?
Its value is < 0.00969.
